± gives the standard deviation of the averaged measurements. This is one part of the list.
system: PfAP2-G AP2 domain (GST-tagged); assay: gcPBM binding intensity (ln(normalized median fluorescence intensity)); higher = stronger DNA binding
Procedure, shortened: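 GST-fused DNA-binding domains of P. falciparum, expressed in E. coli, were applied at about 25 μg on average for 1 h to an Agilent 4 × 180k array of primer-extended double-stranded 36-bp intergenic genomic probes and negative controls. Binding intensity is the highest Masliner-normalised natural-log median intensity across replicate spots of either probe orientation, measured with Alexa488 anti-GST antibody and a 488 nm scan.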

Sequence | gcPBM binding intensity (ln)
ATCATTCAAAAATGCTGTACTAGGGGAAAACGTGTT [XGTACX_site7168] | 10.9 ± 0.59
ATATATAGGTTCCCTTTTCTTTTTTTTTTTTTTTTT [CACACA_negctrl_site1159] | 10.4 ± 0.27
ATGTATGAAAAAATGTGTACATAATTTTTTTTTTTT [XGTACX_site5444] | 11.7 ± 1
AACAAAAGTAATTAAAAACAATACAAACATATGTTT [XGTACX_negctrl_site220] | 9.78 ± 0.15
TGGATAAAATAAAAATGTACTTAACATTTATATTTT [XGTACX_site712] | 10.8 ± 0.51
TATATATATATAAGATGTACCCTTTGAAATAATAAT [XGTACX_site7215] | 11.2 ± 0.51
TGATACTGCAAAAAATATAAAAAAATAATAAAATAA [CACACA_negctrl_site791] | 9.745 ± 0.064
TTAAATGTTGGTTGTAGTACTCCATATGTTGTTTTA [XGTACX_site5312] | 11.5 ± 0.83
CTTATGTGCATACCTACACACTTACATATATATATA [CACACA_site8973] | 10.5 ± 0.61
TTTGGAATATTAATTGTGCACTTAAAAAGTTAATTA | 10.3 ± 0.33
TTACCATTTGAAAATTCACACACTTTATTTTGTTAT [CACACA_site3799] | 9.74 ± 0.26
AACATAAAACGTAATATATTACAAATATAAACAATC [CACACA_negctrl_site1675] | 9.92 ± 0.16
ATTTATACATATAAACGTACATACATATATAATATT [XGTACX_site2969] | 11.4 ± 0.65
ATATATATATATATATGTACATATTTTATAACTGTA [XGTACX_site5395] | 11.3 ± 0.69
TAAAAGTTCACCTGTACACACATATATATATGTACA [CACACA_site1707] | 11.6 ± 0.85
TACTTTACACATATTTTTAATTATTCTGAATTCAAA [GTGCAC_negctrl_site253] | 9.905 ± 0.049
ATATATATATATGTAGTGCATTTTATATATAATATT | 10.1 ± 0.16
TTTTTTATTTTTTGTTATATTTATAATAATTTATGA [XGTACX_negctrl_site260] | 9.58 ± 0.071
TTCAAAAAAGGAAAGTTGCACTTGATACGCTTATTA [GTGCAC_site9411] | 10.3 ± 0.25

Sequence | gcPBM binding intensity (ln)
TACAGATATTTTATTTCACACATTTTATCATTTTCT [CACACA_site5701] | 9.87 ± 0.18
TATATATTGTTATAATGTACATAATATTTTATCTGC [XGTACX_site4983] | 10.9 ± 0.45
AGAATAATTTTATCGGTACACACTGTATGCATAATA [CACACA_site374] | 11 ± 0.71
ATGCAAAATAAAGAAGCACACAAAAATGAAATATAT [CACACA_site9217] | 10.06 ± 0.042
GGAAATTTCAATATTTGTACATATATATATATATAT [XGTACX_site3222] | 10.8 ± 0.65
AAGAAATAAATACATACACACATATATATATATATA [CACACA_site3362] | 10.1 ± 0.39
ATAAGTAATATAATATGTACATATATATATATATAT [XGTACX_site3818] | 11.2 ± 0.5
TTTGTCTGCATACGCACACACGTGTACCATCTTATG [CACACA_site4784] | 11.2 ± 0.75
TATTAATATATATGTTGTACAAGTTTTTTTTTTTTT [XGTACX_site5865] | 11.3 ± 0.66
GATAAAATATGTTGCCGTACATATTCATATACTTAA [XGTACX_site4776] | 11 ± 0.62
ATTTTTTTTTCTTAATGTACATACCAAAAAGAAAGA [XGTACX_site5471] | 11.2 ± 0.69
TATAATATATTTTAATGTACGTACATCCCGATTAAT [XGTACX_site7651] | 11.7 ± 0.86
TTCTATATTTCTTTTTGTACATATAAATTCAAATAA [XGTACX_site2476] | 11.3 ± 0.92
ATATAAAATAATACATGTACATATTATATATATATA [XGTACX_site1082] | 11.1 ± 0.49
TATATACGCATTTTTATACACACTTGTTTTATAAAA [CACACA_site727] | 10.4 ± 0.33
TATTTATATTCATAATGTACATTCAATTATTGTTTT [XGTACX_site4191] | 10.8 ± 0.38
TATTTTGAAAATAAAAGTACAAATTTTATATTTAAA [XGTACX_site3238] | 11.1 ± 0.83
AAATATTAAATGACAAAAAAAAAAAAAAAAGGGGTT [CACACA_negctrl_site951] | 9.64 ± 0.099
TTCTTTATTTTTTCTACACACATTATATATTCAAAG [CACACA_site5866] | 10.12 ± 0.099

Sequence | gcPBM binding intensity (ln)
AAGACCATATGAATAATGCACACGTTTTAAAATATT [CACACA_site2323] | 10.2 ± 0.11
CACACGCACGGACACACACACAAAAAAAAAAAGAAA [CACACA_site6378] | 11.2 ± 0.98
TTTCCATTTTCTCTATGTACATAAAAATGAGATAAA [XGTACX_site5689] | 11.3 ± 0.84
GTTTGGTGGTGTTTTGGTACGTACGGGGGTGTATGT [XGTACX_site1211] | 11.7 ± 0.85
AGGACTAATATTTGAACACACATATAATAAATACAT [CACACA_site6068] | 10.04 ± 0.021
TCTTTGTACTTTCACATGTACACCCAAATGGAAATT [CACACA_negctrl_site1442] | 11.8 ± 0.87
AAATAAATCTTATGCACACAAATAATTAATGAAACA [CACACA_site5011] | 10.1 ± 0.14
ATATTTATGGAATATACACACATGTATAATTACATA [CACACA_site7045] | 9.98 ± 0.13
TTCAAACATATTAATTGTACATACAACAAAACCATG [XGTACX_site5149] | 11.2 ± 0.49
AATATATTTTAGAGTTTTATATATTTTATGCATATA [GTGCAC_negctrl_site710] | 9.72 ± 0.18
ATATTATTTTATGCTACACACATTTTCTCTTATAAA [CACACA_site943] | 10.02 ± 0.035
TGGAAAATAAAGTACGCACACAAAAATTCTCTTCAT [CACACA_site2327] | 11.5 ± 0.77
AAAAAAAAAAAACACACACACACATTCAATATAAAA [CACACA_site40] | 9.93 ± 0.12
ATATGTATTTATGTATTTATGTATTTTTATATTTTT [CACACA_negctrl_site595] | 9.925 ± 0.035
TTTGACTAAATTAAATATTAAAGTATGGATTATTCT [CACACA_negctrl_site833] | 9.77 ± 0.11
ACCCATTTGATAATAATGCACACCACATATATTTAT [CACACA_site3061] | 10.07 ± 0.042
TGCAAGGAACAACACACACACACATAAATGTATATA [CACACA_site8149] | 10.1 ± 0.17
ATATATAATATATACACACACATGTATATATAAATA [CACACA_site1968] | 9.87 ± 0.16
